From the supplement of paper PMC11417369
± gives the standard deviation of the averaged measurements. Some of the results follow.

test system: PfAP2-I AP2 domain 3 (GST-tagged); assay: gcPBM binding intensity (ln(normalized median fluorescence intensity)); higher = stronger DNA binding
Method in brief: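 Binding intensity is defined as the maximum Masliner-normalised natural-log median intensity across replicate spots for either probe orientation. It was measured on an Agilent 4 × 180k array of primer-extended double-stranded 36-bp intergenic genomic probes and negative controls, to which GST-tagged P. falciparum DNA-binding domains made in E. coli were applied for 1 h in 1× PBS with 1% milk, 0.2 mg/ml BSA, 0.5% salmon testes DNA and 0.03% Triton X-100. Detection was by Alexa488 anti-GST antibody and scanning at 488 nm.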

| Sequence | gcPBM binding intensity (ln) |
| --- | --- |
| TTTTTTTATATAGACACAAAAGAAAATTACATATAC [CACACA_negctrl_site235] | 7.92 ± 0.56 |
| TATAATATATATATATTTATATATATCTTCCTAATC [GTGCAC_negctrl_site682] | 7.45 ± 0.2 |
| TATGAAGTACACAATACACACTAATTATATATAAAT [CACACA_site5444] | 7.88 ± 0.28 |
| TTTTTAAAAAAACATACACACAAAAAAAAAAAAAAA [CACACA_site3935] | 8.11 ± 0.67 |
| TATATATATTATAATACATGCGGTGATGAAAGTTAT [TGCATGCA_site924] | 8.2 ± 0.73 |
| TATAAATATAGACACACACACACCAAAGCGTAGCGC [CACACA_site6179] | 7.49 ± 0.65 |
| TATATATATATATGATGTACATGAAAATTTCCAAAA [XGTACX_site5472] | 9.63 ± 0.41 |
| ATATCTGAAGTGTAAAGTACATATATATATTCATAT [XGTACX_site4612] | 7.82 ± 0.32 |
| TATATTTTTTAATTCACACAAAAATGAAAAATATTT [CACACA_site6001] | 7.68 ± 0.45 |
| CAATTTTACTCATAAACACACATATAGATGTTATTA [CACACA_site7474] | 7.76 ± 0.39 |
| AATGGAGTTTATAAGTATAAACGAGGGATACCTAAA [XGTACX_negctrl_site483] | 7.88 ± 0.7 |
| AATATAAATAATAGTAGTACATATATATCTCAGAAA [XGTACX_site4055] | 7.68 ± 0.36 |
| TTATGTTGTAAATGCACACATACATATACGCAGTTT [CACACA_site3015] | 9.76 ± 0.45 |
| TAAATAAATTTATACACACACACACCCATATATATA [CACACA_site849] | 8.43 ± 0.61 |
| AAAAAATCAAAACACACACACACACTAGAAAAAAAA [CACACA_site4909] | 7.92 ± 0.3 |
| ATTTTATCAAGAGGAAGTACATTACCCCATGAAAAA [XGTACX_site8295] | 7.99 ± 0.71 |
| AATAAAAATATATCCACACACATATATATATCTGTA [CACACA_site4481] | 7.75 ± 0.51 |
| TATATTATATTTTTATGTACATATATGTTTTTTTTT [XGTACX_site8239] | 7.68 ± 0.47 |
| CACACCCACAGACACACACACACATATATAATATAT [CACACA_site594] | 8.35 ± 0.18 |
| AAAAAAAAAAAAAAAGCACACACCAATGAGCAGCTT [CACACA_site1845] | 9.24 ± 0.47 |
| ATATGTTACAAAGATTGTACTTATTAAGGAGCGACT [XGTACX_site5094] | 7.91 ± 0.44 |
| TAATATATGTATTATGCATGTGAATAAGCACTTGAT [TGCATGCA_site848] | 9.03 ± 0.4 |
| TATAATCATATACACGCATGTATAAAATTTAATACT [TGCATGCA_site700] | 7.62 ± 0.54 |

| Sequence | gcPBM binding intensity (ln) |
| --- | --- |
| ACATTCAAGCGTAATTGTACATACATATATATATAT [XGTACX_site8876] | 9.195 ± 0.021 |
| ATGTATATAAATAGTAGTACATTATTTCACACTGTA [XGTACX_site2061] | 7.88 ± 0.36 |
| TATTGTATCCTTAATGCATGCACCAAATAAAAAAAG [TGCATGCA_site541] | 10.1 ± 0.2 |
| ACCATATGTACATTTTTTTTTTTTTTTTTTTTTTTT [CACACA_negctrl_site1188] | 9.735 ± 0.092 |
| ATATATATATAATGTAGTACTATTTAATAATAAGCC [XGTACX_site1263] | 8.93 ± 0.42 |
| AATAATTTGGTCTTATCAAAAATTAAAAATAAATAA [XGTACX_negctrl_site430] | 7.5 ± 0.46 |
| AAAAAACATTTTCGAGTGCATGTTTTGCTTTATTTC | 8.46 ± 0.3 |
| TTAAATGTTAAAAGGGTGCTATTATATAAATGAAAA [GTGCAC_site9882] | 9.7 ± 0.17 |
| TTCATATGTTTTAACACACACGCATATATTATATAT [CACACA_site2007] | 8.12 ± 0.5 |
| AAAAAAATTTGGCATACACACACACCCCCACCCACA [CACACA_site8094] | 9.38 ± 0.23 |
| GTTTTATATTATATATGTACATATCCATGAGATATA [XGTACX_site3328] | 8.09 ± 0.7 |
| TTTAACTTTTATATAACACACATATTGTAATTATGT [CACACA_site6486] | 7.92 ± 0.33 |
| ATGACAATTCAAAATTGTACATAAAAAAAAAAAAAA [XGTACX_site7560] | 7.91 ± 0.84 |
| TGTAAACATAAGATATGTACTTATATCATATTATAA [XGTACX_site6883] | 7.44 ± 0.34 |
| TAAAAATTACTATATGAACACACATGATTAGATATA [CACACA_site9012] | 7.51 ± 0.54 |
| AGGTGATTAATATATACACACATACATATATATATA [CACACA_site8913] | 9.15 ± 0.3 |
| TAATAATAATTAAATTGTACATATAATATAATATAA [XGTACX_site8554] | 7.76 ± 0.33 |
| ATATTATCATATTCGAGTACACGAAGTATTATTGCA [XGTACX_site6765] | 7.99 ± 0.52 |
| AATAAAGTAATAACTACACACATTTATAAAAAAGTA [CACACA_site3753] | 7.63 ± 0.4 |
| TATAAGCTTTCAATGTGTACATATTATTTTATTATT [XGTACX_site3988] | 7.93 ± 0.41 |
| TCTTATAAACATGTATATATTAAAAAAAAAAAAAAA [TGCATGCA_negctrl_site86] | 8.01 ± 0.51 |
| AACATATTGGATTTAGTGCACATATATATCATAATA | 11.5 ± 0.29 |
| AAAAATTACCCTTGTGTACACATATATTATCTGTAT [CACACA_site4513] | 8.37 ± 0.5 |

| Sequence | gcPBM binding intensity (ln) |
| --- | --- |
| ATATATATAGATCGAAGTACAGATAGAATGAAAATA [XGTACX_site2695] | 8.09 ± 0.65 |
| TAAAAAAATTTTACAAGTACAAAAAAATGTAATAAA [XGTACX_site4829] | 7.91 ± 0.38 |
| ACAAGAGAAAAAAATACACACAAGATAAAAATGTAT [CACACA_site607] | 7.75 ± 0.69 |
| ATATATCATCATGTATGTACACACATACATATATTA [XGTACX_site2814] | 8.03 ± 0.5 |
| TATGCTTTTACAATGTGTACTTATATTTTTCACAGG [XGTACX_site6201] | 8.205 ± 0.078 |
| TAATTTTCAATAATTTGTACATAATTTTTATAAATT [XGTACX_site8133] | 7.49 ± 0.3 |
| AACCATAAAAAGTGTACACATATAAAAAATATGGAA [CACACA_site4199] | 8.04 ± 0.71 |
| TATATAAATTAACCAGTGCATTATTTGGAAATTATT | 11.1 ± 0.59 |
| TTCTGACCAATGCTATAAAATAATACAAAAGAAAAA [GTGCAC_negctrl_site3] | 7.83 ± 0.35 |
| TGAAGAGGAAACAAACAAAATGAATAATTAAAAAGG [CACACA_negctrl_site1601] | 7.88 ± 0.8 |
| TATATCCACATTTTTAGTACTTAAAAATAAATAAAC [XGTACX_site3826] | 8.01 ± 0.34 |
| TTTCTTCATTTTTTCACACATAAGAAAATATAATCA [CACACA_site4275] | 7.95 ± 0.44 |
| AAGGAAAACAATAGGTGTACCAAACGTCCTAGGAAC [XGTACX_site5732] | 7.75 ± 0.77 |
| AAAAAAGCAATATGATGTACATTTACTTTGTGAAAG [XGTACX_site4450] | 7.58 ± 0.63 |
| TAAAAAAATAAAATTACACACATATATAAATATATA [CACACA_site2620] | 7.26 ± 0.34 |
| AAATATTATAAAAAGGTGCATTTTTATTATATGAGT | 10.5 ± 0.35 |
| CTAGGTATGCTTTAAACATGCAAAAATACAAATTAC [TGCATGCA_site239] | 7.97 ± 0.76 |
| ATATATAAATATATTTGTACATATAATATGTATTAT [XGTACX_site8820] | 7.75 ± 0.47 |
| AATTTAAAAAAAATCACACACAGAAAAAAAAAAAAA [CACACA_site2322] | 8.21 ± 0.9 |
| ATATATGTTTTTATATGTACTTATAATGTGTGTATA [XGTACX_site5165] | 7.86 ± 0.092 |
| GATAAATTAAAACACACACACATATATATATATATA [CACACA_site3962] | 9.44 ± 0.52 |
| AAAAAAATAGTCTTCTTGCACTTTTTAATTTATTTT | 8.91 ± 0.36 |
| TTATAATAAAATGAATATATATAATTTAAAATATTT [CACACA_negctrl_site1651] | 7.36 ± 0.55 |

| Sequence | gcPBM binding intensity (ln) |
| --- | --- |
| AAAAAAAGTTATATTACACACTTTATTCGTTAACTT [CACACA_site3013] | 7.83 ± 0.67 |
| ATATTTATGAAGTTCACACATATATATATATATATA [CACACA_site5954] | 9.59 ± 0.75 |
| ACAACAATATTTGAATGTACTCTATTTTCGTTGTTC [XGTACX_site593] | 7.76 ± 0.52 |
| ATACACACTCAAAAAAGTACTTAACTACATGAATTG [XGTACX_site6366] | 7.79 ± 0.55 |
| CTCAAAGGAATATTCACACATAAATTATAGACTACA [CACACA_site6050] | 7.53 ± 0.45 |
| TAATTATATTCACTTGCTATATAAATTATATATATT [CACACA_negctrl_site526] | 7.72 ± 0.4 |
| GTATATATATATATATGCAAATGTATAAATCTACAT [CACACA_negctrl_site546] | 7.75 ± 0.56 |
| AAGAAAAAAATATATGTTTATTTACTTTAATAATTT [TGCATGCA_negctrl_site168] | 7.36 ± 0.55 |
| TATATATAAATATGCTGTACGTTTTAATACGTTAAG [XGTACX_site2378] | 7.86 ± 0.19 |
| TGTGAATAAATAAGCACACATAAACCCATATATAAA [CACACA_site4103] | 8.18 ± 0.26 |
| ATCTAAACAAATAATACACACAATAAAATAGGAAGA [CACACA_site4072] | 7.98 ± 0.78 |
| TAATATTTACATATTACACACACGTATTATTAAATA [CACACA_site6340] | 7.8 ± 0.4 |
| TATTTTTTAAAAATGGGTACACATAAATAAATAAAT [XGTACX_site7643] | 8.32 ± 0.54 |
| AAGAAAAATTTAAACTGTACTTGTTTTCCAATGAAC [XGTACX_site4443] | 8.12 ± 0.18 |
| AAAAAAAAAAAAGTTACACACAAATAAAATATTTGG [CACACA_site694] | 7.46 ± 0.3 |
| ATTATTCATTTATGTAGTACATTTTAATACATTTAA [XGTACX_site3599] | 7.75 ± 0.6 |
| ATAAAAAAAAATAAATGTACAAATTAACAAAATAAT [XGTACX_site5048] | 7.92 ± 0.61 |
| AATCACCAAATATGTACACACCTTAACATGTTTATA [CACACA_site5180] | 8.14 ± 0.64 |
| ATTTATTAAATTTATAGTACTCAAAGATTTTTATTT [XGTACX_site6661] | 7.58 ± 0.39 |
| AAATAAAACAATTAACGTACAAGCATATATATATAT [XGTACX_site8508] | 9.43 ± 0.2 |
